Measurements published in PubChem BioAssay (NCI).
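Cultured in 96-well plates, cells were exposed to test compound for 48 hours across five concentrations. Here, GI50 denotes the concentration required for 50% inhibition of growth. Definition used: TGI = concentration required for complete inhibition of growth.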

Test system: NCI-H322M lung
Test: NCI anticancer screen, dose series, 48 h

Row | SMILES | GI50 [µM] | TGI [µM]
1 | N#Cc1nc(-c2ccccc2)oc1S(=O)(=O)N1CCCCC1 | 90.7 | > 100
2 | CCC(CC)n1c(=O)c(SC2=NC3C(NN2)N(CC)C(=O)N3CC)c(C(=O)O)c2ccccc21 (stereo unspecified) | 7.02 | > 100
3 | O=C1CC2(CCOCC2)Oc2ncccc21 | 2.87 | 10.2
